One molecule from US20230242607A1 (EUTILEX, published 2023) can be followed below.

The target in experiment [1] is T1, IL2-RB (UniProt P14784 27-239, limits assumed).
T1 construct: Bought recombinant protein (Sino); also called CD122; IL-2Rβ
T1 sequence (looked up): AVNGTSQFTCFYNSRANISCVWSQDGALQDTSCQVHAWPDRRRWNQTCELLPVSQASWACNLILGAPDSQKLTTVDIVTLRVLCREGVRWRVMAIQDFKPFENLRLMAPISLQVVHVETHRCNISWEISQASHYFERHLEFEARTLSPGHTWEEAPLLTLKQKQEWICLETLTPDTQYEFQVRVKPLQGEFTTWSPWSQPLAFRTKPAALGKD
Briefly: SPR, Biacore T200; IL-2-Fc on CM5 chip, receptor injected; 1:1 model. The protocol: (§1) The affinity of additional IL-2 variants to IL-2 receptors, IL2-RA and IL2-RB, was analyzed using surface plasmon resonance (SPR). The IL-2 variants were diluted to a concentration of 2 ug/mL then immobilized on CM5 chip (GE Healthcare, Cat#BR-1005-30). Biacore T200 (GE healthcare) was used to measure and analyze affinity of each IL-2 variant, where the results were analyzed with a 1:1 binding model by BIAevaluation software, as described in Example 4.
(SPR reads the build-up and loss of mass on a sensor chip optically.)

The target of experiment [2] is T2, IL2-RA (UniProt P01589 22-213, limits assumed).
T2 construct: Bought recombinant protein (Sino); also called CD25; IL-2Rα
T2 sequence (looked up): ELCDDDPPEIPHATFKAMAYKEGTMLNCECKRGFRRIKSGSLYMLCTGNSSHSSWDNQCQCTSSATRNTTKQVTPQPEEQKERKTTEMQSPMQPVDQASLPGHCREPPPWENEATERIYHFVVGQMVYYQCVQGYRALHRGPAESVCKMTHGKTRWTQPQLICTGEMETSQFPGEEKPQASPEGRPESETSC
The experiment is described as above. The protocol:
as §1

B1: wild-type IL-2 Fc fusion protein (Fc fusion)
chain: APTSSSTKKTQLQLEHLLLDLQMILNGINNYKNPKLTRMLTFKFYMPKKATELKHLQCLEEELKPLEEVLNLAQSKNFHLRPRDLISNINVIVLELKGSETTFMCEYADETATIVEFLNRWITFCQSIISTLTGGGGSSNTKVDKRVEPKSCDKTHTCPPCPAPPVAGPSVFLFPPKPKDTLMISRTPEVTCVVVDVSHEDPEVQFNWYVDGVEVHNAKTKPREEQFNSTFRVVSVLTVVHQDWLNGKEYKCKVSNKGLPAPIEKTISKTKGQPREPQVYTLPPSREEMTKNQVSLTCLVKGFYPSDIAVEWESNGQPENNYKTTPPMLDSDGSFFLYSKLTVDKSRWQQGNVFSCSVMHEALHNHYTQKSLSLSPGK
notes: also called IL2 wt; IL2 WT
As a reminder, the Kd is the equilibrium constant for the complex coming apart. In general, koff refers to the rate constant with which the complex falls apart. A lower koff goes with a long-lived complex. As usually defined, the kon is a measure of how fast the partners come together. A lower kon goes with slower complex formation. In experiment [1], B1 came in with a Kd of 62.8 nM, a koff of 0.0265 s⁻¹ and a kon of 421000 M⁻¹ s⁻¹. In experiment [2], this molecule yielded a Kd of 0.912 nM, a koff of 0.000258 s⁻¹ and a kon of 283000 M⁻¹ s⁻¹.
